According to paper PMC10810860:
Results are given in words; binding and its absence hold for the method and conditions named. Binding seen in cells or lysates may run through a third protein. Some results given as binding are weak or reduced against the parent protein; the word gives no strength.

Chains of the proteins cited; added tags and fusions are not shown. Lines headed by an entry give the natural chain unless they say otherwise; changes in a name come on top. Residues count along the entry.
UniProt Q96EP0: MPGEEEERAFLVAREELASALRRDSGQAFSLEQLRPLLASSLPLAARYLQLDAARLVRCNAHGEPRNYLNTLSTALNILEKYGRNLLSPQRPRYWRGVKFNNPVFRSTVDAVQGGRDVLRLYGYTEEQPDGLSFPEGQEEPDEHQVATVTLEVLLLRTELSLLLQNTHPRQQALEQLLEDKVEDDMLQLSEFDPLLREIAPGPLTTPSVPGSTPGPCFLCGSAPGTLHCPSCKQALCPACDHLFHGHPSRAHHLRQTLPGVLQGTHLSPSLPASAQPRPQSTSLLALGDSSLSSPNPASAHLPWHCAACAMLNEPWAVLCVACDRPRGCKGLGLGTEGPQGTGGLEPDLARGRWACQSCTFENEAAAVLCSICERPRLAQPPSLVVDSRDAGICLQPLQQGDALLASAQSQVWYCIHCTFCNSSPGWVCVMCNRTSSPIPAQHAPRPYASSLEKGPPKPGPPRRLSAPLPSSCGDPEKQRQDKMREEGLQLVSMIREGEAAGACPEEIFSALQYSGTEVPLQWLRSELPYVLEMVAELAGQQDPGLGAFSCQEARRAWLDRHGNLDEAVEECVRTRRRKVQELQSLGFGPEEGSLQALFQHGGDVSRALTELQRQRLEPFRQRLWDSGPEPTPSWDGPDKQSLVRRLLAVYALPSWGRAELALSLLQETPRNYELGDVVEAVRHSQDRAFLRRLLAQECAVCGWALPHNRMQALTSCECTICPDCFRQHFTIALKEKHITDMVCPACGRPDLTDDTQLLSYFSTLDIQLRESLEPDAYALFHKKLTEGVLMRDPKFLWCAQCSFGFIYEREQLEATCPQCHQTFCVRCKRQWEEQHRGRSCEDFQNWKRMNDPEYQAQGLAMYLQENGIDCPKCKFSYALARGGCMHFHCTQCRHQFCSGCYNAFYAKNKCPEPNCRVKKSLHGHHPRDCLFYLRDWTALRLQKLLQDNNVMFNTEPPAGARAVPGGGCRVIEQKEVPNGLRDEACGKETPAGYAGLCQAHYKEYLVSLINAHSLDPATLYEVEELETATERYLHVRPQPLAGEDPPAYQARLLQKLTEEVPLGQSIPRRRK
UniProt Q16665: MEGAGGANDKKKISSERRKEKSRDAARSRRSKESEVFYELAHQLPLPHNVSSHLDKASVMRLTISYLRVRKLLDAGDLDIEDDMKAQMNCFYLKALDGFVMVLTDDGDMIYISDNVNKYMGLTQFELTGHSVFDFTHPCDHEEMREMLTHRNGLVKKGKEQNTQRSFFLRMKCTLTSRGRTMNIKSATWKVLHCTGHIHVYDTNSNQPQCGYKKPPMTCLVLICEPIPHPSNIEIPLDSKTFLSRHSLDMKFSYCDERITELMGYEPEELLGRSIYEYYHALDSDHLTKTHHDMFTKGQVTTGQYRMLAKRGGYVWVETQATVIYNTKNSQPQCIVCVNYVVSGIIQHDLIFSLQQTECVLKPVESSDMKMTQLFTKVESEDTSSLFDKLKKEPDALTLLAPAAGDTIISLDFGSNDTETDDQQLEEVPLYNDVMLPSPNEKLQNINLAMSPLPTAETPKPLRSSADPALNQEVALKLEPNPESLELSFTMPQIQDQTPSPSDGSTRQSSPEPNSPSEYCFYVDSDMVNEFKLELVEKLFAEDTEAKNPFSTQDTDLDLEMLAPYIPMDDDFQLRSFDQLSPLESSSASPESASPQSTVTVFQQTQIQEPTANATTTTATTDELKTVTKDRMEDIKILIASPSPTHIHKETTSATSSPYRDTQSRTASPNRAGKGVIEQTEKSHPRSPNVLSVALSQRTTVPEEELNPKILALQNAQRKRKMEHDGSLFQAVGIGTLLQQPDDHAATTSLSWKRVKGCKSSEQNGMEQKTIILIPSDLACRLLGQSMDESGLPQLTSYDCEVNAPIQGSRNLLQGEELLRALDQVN
HIF1α(1-80): residues 1-80 of Q16665
UniProt P11142: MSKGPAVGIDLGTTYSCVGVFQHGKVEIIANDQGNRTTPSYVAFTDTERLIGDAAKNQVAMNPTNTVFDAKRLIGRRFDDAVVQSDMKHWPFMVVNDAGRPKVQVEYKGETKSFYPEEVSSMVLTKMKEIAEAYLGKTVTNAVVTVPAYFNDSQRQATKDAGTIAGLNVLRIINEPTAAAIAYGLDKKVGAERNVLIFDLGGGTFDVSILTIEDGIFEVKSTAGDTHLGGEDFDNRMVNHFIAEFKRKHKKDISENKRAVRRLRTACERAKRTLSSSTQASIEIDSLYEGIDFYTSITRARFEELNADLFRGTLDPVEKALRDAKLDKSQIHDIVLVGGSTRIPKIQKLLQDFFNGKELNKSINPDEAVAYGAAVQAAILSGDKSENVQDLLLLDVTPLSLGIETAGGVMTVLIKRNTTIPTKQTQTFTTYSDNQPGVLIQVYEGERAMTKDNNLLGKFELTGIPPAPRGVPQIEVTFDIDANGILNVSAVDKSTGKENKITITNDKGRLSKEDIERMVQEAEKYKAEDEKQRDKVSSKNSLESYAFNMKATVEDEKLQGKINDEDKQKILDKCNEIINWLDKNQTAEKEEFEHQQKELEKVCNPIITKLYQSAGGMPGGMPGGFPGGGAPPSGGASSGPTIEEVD

Columns and labels:
[1] = biological target: HOIP (HOIL-1L interacting protein), full-length, expressed by transfection (UniProt Q96EP0); assay: co-IP; reciprocal co-IP (Fig. S3A, S3B); the other partner precipitated
[2] = biological target: T1, Sharpin (SHANK-associated RH domain-interacting protein), expressed by transfection (UniProt Q9H0F6); assay: as above
T1 sequence: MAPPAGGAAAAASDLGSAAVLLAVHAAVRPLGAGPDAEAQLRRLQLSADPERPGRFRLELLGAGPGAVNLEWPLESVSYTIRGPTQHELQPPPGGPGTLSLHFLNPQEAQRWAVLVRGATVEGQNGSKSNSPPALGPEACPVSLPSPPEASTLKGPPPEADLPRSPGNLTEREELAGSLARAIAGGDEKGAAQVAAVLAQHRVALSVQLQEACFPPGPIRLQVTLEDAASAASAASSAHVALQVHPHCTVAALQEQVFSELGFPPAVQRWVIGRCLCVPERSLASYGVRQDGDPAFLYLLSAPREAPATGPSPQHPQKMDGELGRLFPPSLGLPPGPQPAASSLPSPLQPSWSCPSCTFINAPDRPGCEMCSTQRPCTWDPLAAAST

[3] = biological target: HIF1α (hypoxia-inducible factor 1 alpha), full-length, expressed by transfection (UniProt Q16665); assay: co-IP; co-IP/IB from lysates of HEK293T cells transfected as indicated (antibody with Protein A/G agarose overnight, then immunoblot)
HIF1α(1-80) = HIF1α(1-80) (UniProt Q16665); assay: pull-down; GST pulldown from lysates of transfected HEK293T cells in NETN buffer on glutathione agarose, detected by immunoblot; in Fig. 6E, F with or without overexpressed HOIP
[4] = biological target: HIF1α, endogenous in A549 cells (human (endogenous in A549)) (UniProt Q16665); assay: co-IP; IP/IB of endogenous proteins from A549 lysates (antibody with Protein A/G agarose overnight, then immunoblot); cells untreated or treated with DMOG, or A549 HOIPCON/HOIPOE and HOIPWT/HOIPKO lines
[5] = biological target: HIF1α^K362R, linear ubiquitination-resistant mutant of HIF1α (UniProt Q16665); assay: co-IP; co-IP/IB from lysates of HEK293T cells transfected as indicated (antibody with Protein A/G agarose overnight, then immunoblot)
[6] = biological target: HIF1α (hypoxia-inducible factor 1 alpha), full-length, expressed by transfection (UniProt Q16665); assay: pull-down; GST pulldown from lysates of transfected HEK293T cells in NETN buffer on glutathione agarose, detected by immunoblot; in Fig. 6E, F with or without overexpressed HOIP

| binding [3] | binding (HIF1α(1-80)) | binding [4] | Substance | other results |
| --- | --- | --- | --- | --- |
| binds | binds |  | HOIP (HOIL-1L interacting protein), full-length, expressed by transfection (from UniProt Q96EP0 1-1072) (enzyme) |  |
|  | binds |  | HOIP(521-570) (from UniProt Q96EP0 521-570) (domain or fragment) |  |
|  |  | binds | HOIP, endogenous in A549 cells (from UniProt Q96EP0 1-1072) (enzyme) |  |

Continued, substance first:

| Substance | binding [3] | binding (HIF1α(1-80)) | binding [4] | other results |
| --- | --- | --- | --- | --- |
| HIF1α (hypoxia-inducible factor 1 alpha), full-length, expressed by transfection (from UniProt Q16665 1-826) |  |  |  | binding [1]: binds; binding [2]: no binding |
| HSC70 (heat-shock cognate protein of 70 kDa) in HEK293T cells (from UniProt P11142 1-646) | binds |  |  | binding [5]: binds; binding [6]: binds |
| HSC70, endogenous in A549 cells (from UniProt P11142 1-646) |  |  | binds |  |
